# According to the supplement of paper PMC10986608:
# The other results are listed elsewhere or left out. Repeats are few or missing, and single values can be far off.
# Test system: Candida albicans DPL-15
# Test: growth (OD600) after compound treatment (apparently relative to screen median) (relative growth (fraction; screen median 1.02)); DPL-15 is a caspofungin-resistant clinical isolate; higher = more fungal growth (less antifungal activity)
# Details: 25 µM; RPMI 1640; 48 h; 30 °C
row,Structure (SMILES),growth
1,CCN1C(=S)NC(c2ccccc2F)C(C(=O)OC)=C1C (configuration not stated),1.14
2,COc1cc(O)c(C(=O)[C@@H]2CC=C(CCC=C(C)C)C[C@H]2c2ccsc2)c(O)c1,1.07
3,COc1ccc(N2C(=O)c3c(c(CC(C)C)nn3C)C2c2ccc(F)cc2)cc1 (configuration not stated),0.854
4,C=CCCCCc1cc2cc(OC)cc(OC)c2c(=O)o1,1.05
5,CC(C)c1c2c(nn1-c1ccc(OC(F)(F)F)cc1)C(=O)NC2c1cccc(C(F)(F)F)c1 (configuration not stated),0.953
6,COc1cc(F)ccc1C1c2c(CC(C)C)n[nH]c2C(=O)N1c1ccc(Br)cc1 (configuration not stated),1.01
7,Brc1ccc(/C=C/c2cc(/C=C/c3ccc(Br)cc3)[nH]n2)cc1,1.01
8,COCOc1cccc2c(OC)c(C3=C(CO[Si](C)(C)C(C)(C)C)[C@@H](OC(C)=O)[C@@]4(C)O[C@H]4[C@H]3OC(C)=O)cc(OC)c12,0.939
9,O=c1c2ccccc2oc2cc(CC3OCCO3)cc(O)c12,1.07
10,CC(C)(C)NS(=O)(=O)N(CCC1CCCCC1)C(=O)OC(C)(C)C,1.12
11,C[C@H](OS(=O)(=O)NC(C)(C)C)C1CC[C@H]2[C@@H]3CCC4=CC(=O)CC[C@]4(C)[C@H]3CC[C@]12C (some centres not stated),1.06
12,COC(=O)[C@H](Cc1ccccc1)N[C@H](c1ccc(OC)cc1)[C@@H](O)Cc1ccccc1,1.1
13,COc1ccc(N2C(=O)c3[nH]nc(CC(C)C)c3C2c2ccc(F)cn2)cc1 (configuration not stated),1.16
14,COC(=O)[C@]1([C@@H]2OC(=O)C[C@@H]2C)CC(=O)c2c(O)ccc(Br)c2O1,1
15,CC(=O)O[C@@H]1C[C@@]23CC[C@@H]4[C@](C)(COS(=O)(=O)NC(C)(C)C)CCC[C@@]4(C)[C@@H]2CC[C@]1(C)C3,1
16,CCCCCCN(C(=O)OC(C)(C)C)S(=O)(=O)NC(C)(C)C,1.04
17,CCOC(=O)C1=C(C)NC(=O)NC1c1ccccc1 (configuration not stated),1.09
18,COc1cc(C)cc2c1-c1c(c(OC)c3c(OC)cccc3c1OC)C2=O,1.13
19,CC(C)C1=NCCNC2=C1C(c1ccc(F)cc1)N(Cc1ccccc1)C2=O (configuration not stated),0.901
20,CC(C)CC1=NCC(C)(C)NC2=C1C(c1ccc(Br)cc1)NC2=O (configuration not stated),0.998
21,C#CCC(C)(C)CNC(=O)CC1(CNC(=O)c2cccc(/C=N/NS(=O)(=O)c3ccc(C)cc3)n2)CCCCC1,1.16
22,COC(=O)c1[nH]c2ccc(OC)cc2c1[C@]12CCN(C(=O)Cc3ccc4c(c3)OCO4)[C@H]1Nc1ccccc12,0.914
